Reference: PubChem BioAssay AID1347120 (National Center for Advancing Translational Sciences (NCATS), 2019)
The campaign covered roughly 390,000 compounds. About 930 (0.24%) were called active. The shares of active, inactive and inconclusive entries below differ from those in the screen. The call rests on the fitted dose curve; in most records, active means well fitted activation curve with a large enough effect; inconclusive means small, poorly fitted or top-dose-only effect; inactive means no such curve, though single readings can be large or run the other way. A potency beside an inconclusive call is a rough fit, not a confirmed value.

Test: qHTS for Suppressors of FUS Proteinopathy: Primary screen using FUS-linked yeast assay; further: nearly all actives have a fitted effect of over 55% in size
Settings: S. cerevisiae FUS-expressing, OD600, 24 h; Potency: growth rescue; series mostly up to 76.6 µM
In short: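 Yeast FUS proteinopathy model; galactose-induced FUS (2%), starting OD 0.005. Cpds in dilution series, 24hr, 30C, 99% humidity. Abs 600 nm growth. Pos ctrl CP55940 (top 92uM final); neg ctrl DMSO.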
Potency means the concentration at half of the fitted maximal effect; tags describe the fitted curve by direction and shape.

Row | Compound | Potency
1 | CC(NC(=O)c1cccc(S(=O)(=O)N2CCN(Cc3ccccc3)CC2)c1)c1ccccc1Cl (centres undefined) | inactive
2 | C=CCn1c(C)cc(C(=O)COc2ccc(N(C)S(=O)(=O)c3ccc(NC(C)=O)cc3)cc2)c1C | inconclusive: 50.1 µM [activator, single point]
3 | O=C(Nc1ccc(-c2nc3cc(Cl)ccc3o2)cc1)c1cc(Br)ccc1Cl | inconclusive: 39.8 µM [activator, single point]
4 | CC(=O)Nc1ccc(C2=CC(=O)C[C@H](c3ccc4c(c3)OCO4)C2)cc1 | inactive
5 | CCc1ccc(NC(=O)Cn2c(=O)c3cccn3c3ccccc32)cc1 | inactive
6 | CCCCCCCCN1C(=O)[C@@H](CC(=O)NCc2cccs2)C[C@@]2(C(=O)OC)C1=C[C@H](C(C)C)O[C@@H]2C1CC1 | inconclusive: 11.2 µM [activator, partial curve, poor fit]
7 | CN(CC(=O)Nc1ccc(OC(F)(F)F)cc1)S(=O)(=O)c1ccc2c(c1)CCC(=O)N2 | inactive
8 | O=C(CSc1nnc(-c2ccccn2)n1-c1ccc(Cl)cc1)Nc1cccc2ccccc12 | inactive
9 | CCCCOCCCNC(=O)C[C@@H]1C[C@@]2(C(=O)OCC)CCC=C2N(Cc2ccc(Cl)cc2Cl)C1=O | inconclusive: 14.1 µM [activator, partial curve]
10 | Cc1ccc(C)c(NC(=O)CSc2nc3nccnc3c(=O)n2CCc2c[nH]c3ccccc23)c1 | inconclusive: 28.2 µM [activator, single point]
11 | O=C(C1COc2ccccc2O1)N1CCOCC1 (centres undefined) | inconclusive: 7.94 µM [activator, partial curve, poor fit]
12 | COc1ccc2cc3cc(C(=O)N4CCCCCC4)oc3nc2c1 | inactive
13 | COc1ccc(C2CC(O)(c3ccccc3)Oc3cc(OC)cc(OC)c32)cc1 (centres undefined) | inconclusive: 50.1 µM [activator, single point]
14 | CCOC(=O)C1=C(COC(=O)/C=C/c2cccc([N+](=O)[O-])c2)NC(=O)NC1C (centres undefined) | inactive
15 | CN(CC(=O)Nc1cccc(F)c1)C(=O)c1cccc(S(=O)(=O)N2CC3(C)CC2CC(C)(C)C3)c1 (centres undefined) | inconclusive: 39.8 µM [activator, single point]
16 | CN(C)S(=O)(=O)c1cccc(C(=O)NCC(C)(C)CNC(=O)c2cccc(S(=O)(=O)N(C)C)c2)c1 | inactive
17 | COc1ccc(/C=N/n2c(SC)nnc2-c2ccccc2)c(OC)c1OC | inactive
18 | Cc1ccc(S(=O)(=O)N2[C@H](CC(=O)c3ccccc3)OC[C@@H]2C)cc1 | inconclusive: 31.6 µM [activator, partial curve, poor fit]
19 | CCCCC(=O)Nc1nc(C)c(-c2csc(Nc3cc(Cl)ccc3OC)n2)s1 | inconclusive: 39.8 µM [activator, single point]
20 | COc1ccc(S(=O)(=O)N2CCN(Cc3ccccc3)CC2)cc1 | inactive

Row | Compound | Potency
21 | CN1c2ccc(-c3cccc(F)c3)cc2[C@H]2[C@H](CCN2S(=O)(=O)c2cccc(F)c2)[C@H]1CO | inconclusive: 50.1 µM [activator, single point]
22 | Cc1ccc(NS(=O)(=O)c2ccc(N/N=C/c3ccccc3OCC(=O)O)c([N+](=O)[O-])c2)c(C)c1 | inconclusive: 6.31 µM [activator, full curve]
23 | COc1ccc(NC(=O)Cn2c(=O)n(CCCC(=O)NCc3ccccc3Cl)c(=O)c3ccccc32)c(OC)c1 | inactive
24 | CCOc1cc(/C=N/NC(=O)c2cccc([N+](=O)[O-])c2)ccc1OS(=O)(=O)c1ccccc1 | inconclusive: 50.1 µM [activator, partial curve, poor fit]
25 | COc1ccc(-n2c(SCC(=O)NCC3CCCO3)nc3n[nH]c(C)c3c2=N)cc1 (centres undefined) | inconclusive: 2.51 µM [activator, single point]
26 | Cc1ccc(C(CNS(=O)(=O)c2ccccc2)N2CCN(C)CC2)cc1 (centres undefined) | inconclusive: 8.91 µM [activator, single point]
27 | O=C(O)Cc1sc(Nc2ccc(Cl)cc2)nc1-c1cccs1 | inconclusive: 50.1 µM [activator, single point]
28 | C=C1C(=O)O[C@@H]2C[C@@H](C)[C@@H]3C=CC(=O)[C@@]3(C)[C@@H](OC(C)=O)[C@H]12 | inactive
29 | CNC(=O)COc1ccccc1C(=O)Nc1ccc2c(c1)oc1ccccc12 | inactive
30 | CC1N(C)c2cc(NC(=O)c3ccco3)c(P(=O)(Nc3ccc([N+](=O)[O-])cc3)N3CCOCC3)cc2C1(C)C (centres undefined) | inconclusive: 39.8 µM [activator, partial curve, poor fit]
31 | CCOC(=O)[C@H]1[C@H]2COc3cc(OC)ccc3[C@@H]2N2C(=O)CN(CCc3c[nH]c4ccccc34)C(=O)[C@@]12C | inconclusive: 31.6 µM [activator, single point]
32 | Cc1nc(SCC(=O)Nc2ccc3c(c2)OCCO3)nc(C)c1C | inconclusive: 31.6 µM [activator, single point]
33 | COc1ccc(C2C(=O)N(C3CCCCCC3)CC(=O)N2CCc2ccc(Cl)cc2)cc1OC (centres undefined) | inactive
34 | CC[C@]12c3[nH]c4ccccc4c3CCN1C(=O)C(CC(=O)NC/C=C(\C)CCC=C(C)C)C[C@@H]2C(=O)N1CCN(C(=O)c2ccco2)CC1 (some centres undefined) | inconclusive: 25.1 µM [activator, single point]
35 | CCN(CC)CCNC(=O)c1ccc(NC(=O)c2ccc(Cl)c(S(=O)(=O)N3CCCCCC3)c2)cc1 | inconclusive: 25.1 µM [activator, partial curve, poor fit]
36 | CC1CCc2c(sc(NC(=O)COC(=O)c3ccc(O)cc3)c2C#N)C1 (centres undefined) | inconclusive: 11.2 µM [activator, partial curve, poor fit]
37 | O=C(COc1ccccc1)NC1CCS(=O)(=O)C1 (centres undefined) | inactive
38 | CCc1ccccc1NC(=O)CN(c1ccccc1OC)S(=O)(=O)c1ccc(C)cc1 | inconclusive: 12.6 µM [activator, partial curve, poor fit]
39 | CC1(C(=O)NCc2cccc3ccccc23)CCN1C(=O)C1(c2ccccc2)CCCC1 (centres undefined) | inconclusive: 28.2 µM [activator, single point]
